Measured values: patent US20200164083A1 (PROLYNX, published 2020)

Target: GLP-1 receptor
Assay: cell-based or functional assay

B1: [N28A]exenatide (peptide)
peptide: not shown
modifications: chain 1: C-terminal amide (-NH2) on Ser39
- EC50, cAMP assay (GLP1R cAMP Hunter bioassay): 0.025 nM

B2: [N28K]exenatide (peptide)
peptide: not shown
modifications: chain 1: C-terminal amide (-NH2) on Ser39
- EC50, cAMP assay (GLP1R cAMP Hunter bioassay): 0.035 nM
